Over roughly 81,000 sequences, “one-hybrid fitness for binding parS DNA” has its median near -0.17; the highest 2% begin near 0.51. Some of the results follow.
B1: Caulobacter ParB omega fusion; a variant is named by its letters at X, in order, B8GW30 (parent)
chain: MESVVVGEPGMSEGRRGLGRGLSALLGEVDAAPAQAPGEQLGGSREAPIEILQRNPDQPRRTFREEDLEDLSNSIREKGVLQPILVRPSPDTAGEYQIVAGERAWRAAQRAGLKTVPIMVRELDDLAVLEIGIIENVQRADLNVLEEALSYKVLMEKFERTQENIAQTIGKSXSHVANXMRLLXLPDEVQSYLVSGELTAXHARAIAAAADPVALAKQIIEGGLSVRETEALARKAPNLSAGKSKGGRPPRVKDTDTQALESDLSSVLGLDVSIDHRGSTGTLTITYATLEQLDDLCNRLTRGI

Variants of: B1
Assay: one-hybrid fitness for binding parS DNA (scaled: cognate 1, non-cognate 0); higher = stronger binding
Details: with parS DNA site
How it was run: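 Bacterial one-hybrid selection in E. coli USO rpoZ- hisB- pyrF- with a HIS3 reporter carrying the site 19 bp from the promoter, screening Caulobacter ParB libraries with four specificity codons randomised (NNS). Cells grew 48 hours at 37°C on M9-minus-histidine plus 0.1 mM IPTG and 5 mM 3-AT. Plasmids before and after selection were Illumina-sequenced, three replicate libraries pooled, and variants under 10 reads dropped. Fitness is the log change in variant-to-wild-type read ratio, rescaled to cognate 1, non-cognate 0.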

Row | Variant | one-hybrid fitness for binding parS DNA
1 | SLSE | ≤ 0.2
2 | DHGR | ≤ 0.2
3 | AHPE | ≤ 0.2
4 | TPQS | ≤ 0.2
5 | LLDT | ≤ 0.2
6 | YQCV | ≤ 0.2
7 | NTKH | ≤ 0.2
8 | MWYR | ≤ 0.2
9 | VMPG | ≤ 0.2
10 | GGAS | ≤ 0.2
11 | CCTY | ≤ 0.2
12 | TRHT | ≤ 0.2
13 | VLFM | ≤ 0.2
14 | QYPE | ≤ 0.2
15 | RDNM | ≤ 0.2
16 | LMSG | ≤ 0.2
17 | PPSH | ≤ 0.2
18 | NNEA | ≤ 0.2
19 | SHSI | ≤ 0.2
20 | YDAI | ≤ 0.2
21 | YAPT | ≤ 0.2
22 | GDAS | ≤ 0.2
23 | DLTP | ≤ 0.2
24 | TPVK | ≤ 0.2

Row | Variant | one-hybrid fitness for binding parS DNA
25 | NGPA | ≤ 0.2
26 | AGVC | ≤ 0.2
27 | SKWH | ≤ 0.2
28 | DSWG | ≤ 0.2
29 | QDPT | ≤ 0.2
30 | NVRF | ≤ 0.2
31 | VLYV | ≤ 0.2
32 | MTCD | ≤ 0.2
33 | LARW | ≤ 0.2
34 | WRTS | ≤ 0.2
35 | TDQT | ≤ 0.2
36 | YHSC | ≤ 0.2
37 | NHPE | ≤ 0.2
38 | DFTT | ≤ 0.2
39 | EENK | ≤ 0.2
40 | EQNW | ≤ 0.2
41 | AMIG | ≤ 0.2
42 | AEKC | ≤ 0.2
43 | KYYC | ≤ 0.2
44 | RHMA | 0.503
45 | SQPS | ≤ 0.2
46 | SRAY | ≤ 0.2
47 | TVAD | ≤ 0.2
48 | QGIG | ≤ 0.2

Row | Variant | one-hybrid fitness for binding parS DNA
49 | QWSC | ≤ 0.2
50 | IDAK | ≤ 0.2
51 | SWHY | ≤ 0.2
52 | AYDR | ≤ 0.2
53 | PGSR | ≤ 0.2
54 | FNNG | ≤ 0.2
55 | LEST | ≤ 0.2
56 | CISS | ≤ 0.2
57 | TVKH | ≤ 0.2
58 | KLDL | ≤ 0.2
59 | PISG | ≤ 0.2
60 | RFEA | 0.454
61 | TRKH | ≤ 0.2
62 | QFPS | ≤ 0.2
63 | LNPD | ≤ 0.2
64 | DLYL | ≤ 0.2
65 | PNLR | ≤ 0.2
66 | ITSK | ≤ 0.2
67 | HKFS | 0.207
68 | QGVA | ≤ 0.2
69 | LGYN | ≤ 0.2
70 | RVMI | ≤ 0.2
71 | LQIN | ≤ 0.2
72 | DEWS | ≤ 0.2

Row | Variant | one-hybrid fitness for binding parS DNA
73 | SEPA | ≤ 0.2
74 | IEYR | ≤ 0.2
75 | QHMT | ≤ 0.2
76 | IINW | ≤ 0.2
77 | VYRP | ≤ 0.2
78 | TNMC | ≤ 0.2
79 | YPAA | ≤ 0.2
80 | RKAD | ≤ 0.2
81 | CRKT | ≤ 0.2
82 | ISNG | ≤ 0.2
83 | HIEK | ≤ 0.2
84 | YLCY | ≤ 0.2
85 | ERRV | ≤ 0.2
86 | PAKC | ≤ 0.2
87 | STPT | ≤ 0.2
88 | TFQK | ≤ 0.2
89 | SIYF | ≤ 0.2
90 | QRWT | ≤ 0.2
91 | LKQP | ≤ 0.2
92 | YCIW | ≤ 0.2
93 | CEQS | ≤ 0.2
94 | RKHQ | ≤ 0.2
95 | LLAN | ≤ 0.2
96 | ECTS | ≤ 0.2

Row | Variant | one-hybrid fitness for binding parS DNA
97 | KNRV | ≤ 0.2
98 | DSYD | ≤ 0.2
99 | QPQT | ≤ 0.2
100 | AQHL | ≤ 0.2
101 | ITYG | ≤ 0.2
102 | PMSM | ≤ 0.2
103 | RSQW | 0.247
104 | ELDL | ≤ 0.2
105 | CTGH | ≤ 0.2
106 | MLNE | ≤ 0.2
107 | HYTD | ≤ 0.2
108 | SMAI | ≤ 0.2
109 | RYYQ | ≤ 0.2
110 | VSYC | ≤ 0.2
111 | IQCS | ≤ 0.2
112 | AITE | ≤ 0.2
113 | RYHS | 0.921
114 | MLYS | ≤ 0.2
115 | ANSH | ≤ 0.2
116 | GASR | ≤ 0.2
117 | CISL | ≤ 0.2
118 | TYVC | ≤ 0.2
119 | TKKQ | ≤ 0.2
120 | PNPC | ≤ 0.2

Row | Variant | one-hybrid fitness for binding parS DNA
121 | WAKG | ≤ 0.2
122 | LCSA | ≤ 0.2
123 | RAKR | ≤ 0.2
124 | QICV | ≤ 0.2
125 | WYQS | ≤ 0.2
126 | SVKL | ≤ 0.2
127 | QCNT | ≤ 0.2
128 | GMDG | ≤ 0.2
129 | TSQD | ≤ 0.2
130 | PDSE | ≤ 0.2
131 | ARID | ≤ 0.2
132 | YHKS | ≤ 0.2
133 | AAVD | ≤ 0.2
134 | QTNY | ≤ 0.2
135 | HGLS | ≤ 0.2
136 | QVTC | ≤ 0.2
137 | TTTN | ≤ 0.2
138 | LEEC | ≤ 0.2
139 | EKTT | ≤ 0.2
140 | MYLM | ≤ 0.2
141 | LKEV | ≤ 0.2
142 | AWRT | ≤ 0.2
143 | WQFG | ≤ 0.2
144 | MNSY | ≤ 0.2

Row | Variant | one-hybrid fitness for binding parS DNA
145 | AKYF | 0.206
146 | MRDL | ≤ 0.2
147 | AGKS | ≤ 0.2
148 | QTMV | ≤ 0.2
149 | IHTM | ≤ 0.2
150 | NPTM | ≤ 0.2
151 | CEWG | ≤ 0.2
152 | ISAL | ≤ 0.2
153 | TCML | ≤ 0.2
154 | NRAV | ≤ 0.2
155 | KTGE | ≤ 0.2
156 | WWDC | ≤ 0.2
157 | MTVC | ≤ 0.2
158 | SDNT | ≤ 0.2
159 | VTFR | ≤ 0.2
160 | LFHG | ≤ 0.2
161 | WDNT | ≤ 0.2
162 | EHST | ≤ 0.2
163 | LHKV | ≤ 0.2
164 | RYLS | 0.986
165 | DDMR | ≤ 0.2
166 | YDEG | ≤ 0.2
167 | DYRI | ≤ 0.2
168 | VKMN | ≤ 0.2

Row | Variant | one-hybrid fitness for binding parS DNA
169 | GGKL | ≤ 0.2
170 | QRCL | ≤ 0.2
171 | MLQF | ≤ 0.2
172 | QGCR | ≤ 0.2
173 | RQCG | 0.97
174 | KRSQ | ≤ 0.2
175 | ALDM | ≤ 0.2
176 | SSEE | ≤ 0.2
177 | WIKS | ≤ 0.2
178 | ALGA | ≤ 0.2
179 | STWC | ≤ 0.2
180 | AIVS | ≤ 0.2
181 | DASW | ≤ 0.2
182 | RSIS | 0.887
183 | NHGR | ≤ 0.2
184 | STRQ | ≤ 0.2
185 | GLVC | ≤ 0.2
186 | SYKL | ≤ 0.2
187 | SETF | ≤ 0.2
188 | TMAC | ≤ 0.2
189 | PVVW | ≤ 0.2
190 | PSRG | ≤ 0.2
191 | KAVK | ≤ 0.2
192 | NVDR | ≤ 0.2

Row | Variant | one-hybrid fitness for binding parS DNA
193 | VFTR | ≤ 0.2
194 | RHCW | ≤ 0.2
195 | ERNM | ≤ 0.2
196 | FGNT | ≤ 0.2
197 | RAPK | ≤ 0.2
198 | VWTS | ≤ 0.2
199 | VVSC | ≤ 0.2
200 | NHFT | ≤ 0.2
201 | AQAL | ≤ 0.2
202 | WRDF | ≤ 0.2
203 | YLEG | ≤ 0.2
204 | ALPM | ≤ 0.2
205 | NEAP | ≤ 0.2
206 | QGYV | ≤ 0.2
207 | QYCT | ≤ 0.2
208 | HGER | ≤ 0.2
209 | HSLD | ≤ 0.2
210 | LMWL | ≤ 0.2
211 | WRVS | ≤ 0.2
212 | GTGR | ≤ 0.2
213 | SLNS | ≤ 0.2
214 | AAHH | ≤ 0.2
215 | CNYR | ≤ 0.2
216 | TLFA | ≤ 0.2

Row | Variant | one-hybrid fitness for binding parS DNA
217 | MRAT | ≤ 0.2
218 | PMQC | ≤ 0.2
219 | LWMR | ≤ 0.2
220 | GLSK | ≤ 0.2
221 | TSCI | ≤ 0.2
222 | EAHG | ≤ 0.2
223 | ANVV | ≤ 0.2
224 | DDRC | ≤ 0.2
225 | CELS | ≤ 0.2
226 | YKTC | ≤ 0.2
227 | CLDW | ≤ 0.2
228 | VSDI | ≤ 0.2
229 | PNLA | ≤ 0.2
230 | QMMS | ≤ 0.2
231 | CYVC | ≤ 0.2
232 | PHYK | ≤ 0.2
233 | WTSR | ≤ 0.2
234 | VLQT | ≤ 0.2
235 | DWSL | ≤ 0.2
236 | TSAI | ≤ 0.2
237 | PPCY | ≤ 0.2
238 | NDIR | ≤ 0.2
239 | KQKL | ≤ 0.2
240 | IGEG | ≤ 0.2

Row | Variant | one-hybrid fitness for binding parS DNA
241 | ILMR | ≤ 0.2
242 | VECR | ≤ 0.2
243 | HCRA | ≤ 0.2
244 | NQYS | ≤ 0.2
245 | ACAM | ≤ 0.2
246 | GMRS | ≤ 0.2
247 | QYTG | ≤ 0.2
248 | NLGG | ≤ 0.2
249 | WLKD | ≤ 0.2
250 | PNQF | ≤ 0.2
251 | VFAR | ≤ 0.2
252 | YLVG | ≤ 0.2
253 | YVQT | ≤ 0.2
254 | YIPY | ≤ 0.2
255 | TWAS | ≤ 0.2
256 | RDHN | ≤ 0.2
257 | VIVY | ≤ 0.2
258 | VLGF | ≤ 0.2
259 | QERM | ≤ 0.2
260 | APIF | ≤ 0.2
261 | DGAS | ≤ 0.2
262 | DMTI | ≤ 0.2
263 | HAIC | ≤ 0.2
264 | FKRW | ≤ 0.2

Row | Variant | one-hybrid fitness for binding parS DNA
265 | AFSF | ≤ 0.2
266 | EYPR | ≤ 0.2
267 | PNIG | ≤ 0.2
268 | LEEY | ≤ 0.2
269 | VLTE | ≤ 0.2
270 | PHHS | ≤ 0.2
271 | PHAS | ≤ 0.2
272 | EPCT | ≤ 0.2
273 | PQWP | ≤ 0.2
274 | GIHT | ≤ 0.2
275 | KFWS | ≤ 0.2
276 | QEGP | ≤ 0.2
277 | QRGN | ≤ 0.2
278 | HPHA | ≤ 0.2
279 | RYAS | 0.917
280 | YSAV | ≤ 0.2
281 | DTLP | ≤ 0.2
282 | TIHW | ≤ 0.2
283 | GLHY | ≤ 0.2
284 | KTTR | ≤ 0.2
285 | YNTS | ≤ 0.2
286 | ERYF | ≤ 0.2
287 | LSST | ≤ 0.2
288 | LATS | ≤ 0.2

Row | Variant | one-hybrid fitness for binding parS DNA
289 | GCTF | ≤ 0.2
290 | NKST | ≤ 0.2
291 | REHK | ≤ 0.2
292 | RFYF | ≤ 0.2
293 | CAEL | ≤ 0.2
294 | WRTF | ≤ 0.2
295 | VIAK | ≤ 0.2
296 | PNMV | ≤ 0.2
297 | ALHT | ≤ 0.2
298 | ANWC | ≤ 0.2
299 | FARA | ≤ 0.2
300 | KTET | ≤ 0.2
301 | CYRR | ≤ 0.2
302 | DLMG | ≤ 0.2
303 | RIQK | ≤ 0.2
304 | YNRS | ≤ 0.2
305 | RCEH | 0.244
306 | RGPS | 0.336
